Over roughly 1,100 sequences, “thermal melting temperature (Tm) of peptide-HLA complex” has its median near 58; the lowest 2% begin near 42. The list shows a part of the results.
biological target: HLA-A*02:01; assay: thermal melting temperature (Tm) of peptide-HLA complex; higher = more thermostable pHLA complex; details: C1R-A*02:01
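Further: cell lysates heated 10 min at 37–73 °C, remaining pHLA pulled down with pan-class I antibody, peptides quantified by DIA-MS versus 37 °C, Tm where half the complex is lost.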

Sequence | thermal melting temperature
RLSEFIPAVF | 63.7 °C
YLKDGPYITA | 60.3 °C
TLDITPHTV | 56.7 °C
VLLEQPTWQL | 54.3 °C
TLAEIAKAEL | 53.1 °C
GLDPSGARLV | 56.1 °C
TLITDGMRSV | 54.3 °C
SLIGHLQTL | 58.3 °C
VLADALKSI | 58.9 °C
SLAQYLINA | 56.7 °C
SLADDSVLERL | 57 °C
YQYPVIIHL | 58.5 °C
HLAFQIYEA | 55.4 °C
FLDESRSTQYM | 60.7 °C
GLDPQGDRSFL | 57 °C
RLWNETVEL | 63.7 °C
LMVDHVTEV | 58.7 °C
HLAIKLEQV | 59.5 °C

Sequence | thermal melting temperature
QLTNVILHL | 58.7 °C
RIIDTVAQV | 60.6 °C
FLDDVVHSL | 58.8 °C
VLYPHEPTAV | 61.6 °C
FVMETFVHL | 57 °C
SVMGNIIHV | 47.5 °C
TVIAKVNNV | 45.4 °C
YVFENTVATV | 59.8 °C
ILTESEIKL | 55.2 °C
HLIDDLLAA | 41.1 °C
KLLDIPGLEV | 61.3 °C
SLSTAAGAAEL | 60.9 °C
SLIDDNNEINL | 47.2 °C
KLVEFDFLGA | 59.7 °C
FILDFYEKV | 41.8 °C
KLFEDELTL | 56.1 °C
LMGPVVHEV | 46.4 °C
YIYDKDMEII | 57.2 °C
